Measurements reported in the RNAGym collection of RNA variant scans (doi:10.7554/elife.90254).
Read counts are not given, so values of variants with three or more changes are uncertain.

B1: LINE1-full (parent)
chain: UACGUAGGUGGUUUUCCCCUGAUAGUGCUAAGGGGGCCUGGAAGUUUGGACUGGGCAGAGCUCAACACAGCGUGGCAAAGUGGCUGUGGCUAGACUGCCUCUCUGGAUUCCUCGUCACUCAGCAGGGCAUCUCUGAGAGAAAUGCC

Variants of: B1
Test: self-cleavage, relative activity (ratio to wild type); higher = more cleavage; in vitro, sequencing; the parent is a self-cleaving ribozyme
Work on UACGUAGGUGGUUUUCCCCUGAUAGUGCUAAGGGGGCCUGGAAGUUUGGACUGGGCAGAGCUCCUCACAGCGUGGCAAAGUGGCUGUAGCUAGACUGCCUCUCUGGAUUCCUCGUCACUCAGCAGGGCAUCUCUGAGAGAAAUGCC yielded a self-cleavage of 0.03. In the case of UACGUAGGUGGUUUUCCCCUGAUAGUGCUAAGGGGGCCUGGAAGUUUGGACUGGGCAGAGCUCCACACAGCGUGGCUAAGUGGCUGUGGCUAGACUGCCUCUCUGUAUUCCUCGUCACUCAGCAGGGCAUCUCUGAGAGAAAUGCC, the self-cleavage is reported as 0.12. In the case of UACGUAGGUGGUUUUCCCCUGAUAGUGCUAAGGGGGCCUGGAAGUUUGGACUGGGCAGAGCUCCACACAGCGUGGCAGAGUGGCUGUGGCAAGACUGCCUCUCUGGAUUCCUCGUCACUCAGCAGGGCAUCUCUGGGAGAAAUGCC, the self-cleavage is reported as 0.04. Variant UACGUAGGUGGUUUUCCCCUGAUAGUGCUAAGGGGGCCUGGAAGUUUGGACUGGGCAGAGCUCCACACAGCGUGGCAAAGUGGCUGUGGCUAGACUGCCUCUCUGGAUUCCUCGUCCCUCAGCAGGGCACCUCCGAGAGAAAUGCC has a self-cleavage of 0.54. With UACGUAGGUGGUUUUCCCCUGAUAGUGCUAAGGGGGCCUGGAAGUUUGGACUGGGCAGAGCUCCACACAGCGUGGCAAAGUGGCUGUGGCUAGACUGCCUCUCUGGAUUCCUCGUCACUCAGCAGGGCAUCUCUGAGGGUAAUGCC the self-cleavage was 0.26. With UACGUAGGUGGUUUUCCCCUGAUAGUGCUAAGGGGGCCUGGAAGUUUGGACUGGGCAGAGCUCCACACAGCGUGGCAAAGUGGCUGUGGCUAGACUGCCUCUCAGGACUCCUCGUCACUCAGCAGGGCAUCUCUGAGAGAAAUGCC the self-cleavage was 0.19. UACGUAGGUGGUUUUCCCCUGAUAGUGCUAAGGGGGCCUGGAAGUUUGGACUGGGCAGAGCUCCACACAGCGUGGCAAAGUGGCUGUGGCUAGACUGCCUCUCUGGAUCCCUCGUCACUCAGCAGGGCAUCUCUGAGAGAAAUGCU gave a self-cleavage of 0.27. For UACGUAGGUGGUUUUCCCCUGAUAGUGCUAAGGGGGCCUGGAAGUUUGGACUGGGCAGAGCUCGGCACAGCGUGGCGAAGUGGCUGUGGCUAGACUGCCUCUCUGGAUUCCUCGUCACUCAGCAGGGCAUCUCUGAGAGAAAUGCC, the self-cleavage was 0. UACGUAGGUGGUUUUCCCCUGAUAGUGCUAAGGGGGCCUGGAAGUUUGGACUGGGCAGAGCUCGGCACAGCGUGGCAAAGUGGCUGUGGCUAGACUGCCUCUCUGGAUUCCUCGUCACUCAGCAGGGCAUCUCUGGGAGAGAUGCC showed a self-cleavage of 0.4. Variant UACGUAGGUGGUUUUCCCCUGAUAGUGCUAAGGGGGCCUGGAAGUUUGGACUGGGCAGAGCUCGUCACAGCGUGGCAAAGUGGCUGUGGCUAGACUGCCUCUCUGGAUUCCUCGUCGCUCAGCAGGGCAUCUCUGAGAGAAAUGCC has a self-cleavage of 0.2. Variant UACGUAGGUGGUUUUCCCCUGAUAGUGCUAAGGGGGCCUGGAAGUUUGGACUGGGCAGAGCUCGACACGGCAUGGCAAAGUGGCUGUGGCUAGACUGCCUCUCUGGAUUCCUCGUCACUCAGCAGGGCAUCUCUGAGAGAAAUGCC has a self-cleavage of 0.12. For UACGUAGGUGGUUUUCCCCUGAUAGUGCUAAGGGGGCCUGGAAGUUUGGACUGGGCAGAGCUCGACACGGCGUGGCAAAGUGGCUGUGGCUAGACUGCCCCUCUGGAUUCCUCGUCACUCAGCAGGGCAUCUCUGAGAGAAAUGCC, the self-cleavage was 0. With UACGUAGGUGGUUUUCCCCUGAUAGUGCUAAGGGGGCCUGGAAGUUUGGACUGGGCAGAGCUCGACACAGCGUGGCGAAGUGGCUGUGGCUAGACUGCCUCUCUGGAUUCCUCGUCACUCAGCAGGGCAUCUCUGGGAGAUAUGCC the self-cleavage was 0.72. In the case of UACGUAGGUGGUUUUCCCCUGAUAGUGCUAAGGGGGCCUGGAAGUUUGGACUGGGCAGAGCUCGACACAGCGUGGCGAAGUGGCUGUGGCUAGACUGCCUCUCUGGAUUCCUCGUCACUCAGCAGGGCAUCCCUGAGAGAAGUGCC, the self-cleavage is reported as 0.42. UACGUAGGUGGUUUUCCCCUGAUAGUGCUAAGGGGGCCUGGAAGUUUGGACUGGGCAGAGCUCGACACAGCGUGGCAAUGUGGCUGUGGCUAGACUGCCUCUCUGGAUUCCUCGUCACUCAGCAGGGCUUCUCUGAGAGAAAUGCC showed a self-cleavage of 0.39. In the case of UACGUAGGUGGUUUUCCCCUGAUAGUGCUAAGGGGGCCUGGAAGUUUGGACUGGGCAGAGCUCGACACAGCGUGGCAAAGUGGCUGUGGCUGGACUGCCUCUCUGGAGUCCUCGUCACUCAGCAGGGCAUCUCUGAGAGAAAUGCC, the self-cleavage is reported as 0. Variant UACGUAGGUGGUUUUCCCCUGAUAGUGCUAAGGGGGCCUGGAAGUUUGGACUGGGCAGAGCUCGACACAGCGUGGCAAAGUGGCUGUGGCUAGACUGCCUCUCUGGAUUCCUCGUCUCUCAGCAGGGCAUCCCUGAGAGAAACGCC has a self-cleavage of 0.13. For UACGUAGGUGGUUUUCCCCUGAUAGUGCUAAGGGGGCCUGGAAGUUUGGACUGGGCAGAGCUCGACACAGCGUGGCAAAGUGGCUGUGGCUAGACUGCCUCUCUGGAUUCCUCGUCACUCGGCAGGGCAUCUCUGAGAGAGAUGCC, the self-cleavage was 0.17. Variant UACGUAGGUGGUUUUCCCCUGAUAGUGCUAAGGGGGCCUGGAAGUUUGGACUGGGCAGAGCUCGACACAGCGUGGCAAAGUGGCUGUGGCUAGACUGCCUCUCUGGAUUCCUCGUCACUCAGCAGGGCUUCUCUGAGGGAAAUGCC has a self-cleavage of 0.31. Variant UACGUAGGUGGUUUUCCCCUGAUAGUGCUAAGGGGGCCUGGAAGUUUGGACUGGGCAGAGCUCGACACAGCGUGGUAAAGUGGCUGCGGCUAGACUGCCUCUCAGGAUUCCUCGUCACUCAGCAGGGCAUCUCUGAGAGAAAUGCC has a self-cleavage of 0. For UACGUAGGUGGUUUUCCCCUGAUAGUGCUAAGGGGGCCUGGAAGUUUGGACUGGGCAGAGCUCGACACAGCGUGGCAAAGUGGCUGUGGCUAGACUGCCUCUUUGGAUUCCUCGCCACUCAGCAGGGCAUCUCUGAGAGAAAUGCC, the self-cleavage was 0.26. UACGUAGGUGGUUUUCCCCUGAUAGUGCUAAGGGGGCCUGGAAGUUUGGACUGGGCAGAGCUCGACACAGCAUGGCAAAGUGGCUGAGGCUAGACUGCCUCUCUGGAUUCCUCGUCACUCAGCAGGGCAUCUCUGAGAGAAAUGCC showed a self-cleavage of 0.05. In the case of UACGUAGGUGGUUUUCCCCUGAUAGUGCUAAGGGGGCCUGGAAGUUUGGACUGGGCAGAGCUCGACACAGCGUGGCAAAGUGACUGUGGCUAGACUGCCCCUCUGGACUCCUCGUUACUCAGCAGGGCAUCUCUGGGAGAAAUGCC, the self-cleavage is reported as 0.3. Work on UACGUAGGUGGUUUUCCCCUGAUAGUGCUAAGGGGGCCUGGAAGUUUGGACUGGGCAGAGCUCGACACAGCGUGGCAAAGUGGCUUUGGCUAGACUGCCUCUCUGGAUUCCUCGUCACCCAGCUGGGCAUCUCUGAGAGAAAUGCC yielded a self-cleavage of 0.15. For UACGUAGGUGGUUUUCCCCUGAUAGUGCUAAGGGGGCCUGGAAGUUUGGACUGGGCAGAGCUCGACACAGCGUGGCAAAGUGGCUGUAGCUAGACUGCCUCUCCGGAUUCCUCGUCACUCAGCAGGGCAUCUCUGAGAGAAAUGCC, the self-cleavage was 0.12. For UACGUAGGUGGUUUUCCCCUGAUAGUGCUAAGGGGGCCUGGAAGUUUGGACUGGGCAGAGCUCGACACAGCGUGGCAAAGUGGCUGUGUCUAGACUGCCUCUCUGGAUUCCUCGUCACUCAGCAGGGCAUCUCUGAGAGAAAAGCC, the self-cleavage was 0.03. In the case of UACGUAGGUGGUUUUCCCCUGAUAGUGCUAAGGGGGCCUGGAAGUUUGGACUGGGCAGAGCUCGACACAGCGUGGCAAAGUGGCUGUGGCUAAACUGCCUCUCUGGACUCCUCGUCACUCAGCAGGGCAUCUCUGAGAGAAAUGCC, the self-cleavage is reported as 0.03. In the case of UACGUAGGUGGUUUUCCCCUGAUAGUGCUAAGGGGGCCUGGAAGUUUGGACUGGGCAGAGCUCGACACAGCGUGGCAAAGUGGCUGUGGCUAGACUGCCUCUCUGGAUUCCUCGUCACUCAUCAGGGCAUCUCUGAGAGAAGUGCC, the self-cleavage is reported as 0.16. In the case of UACGUAGGUGGUUUUCCCCUGAUAGUGCUAAGGGGGCCUGGAAGUUUGGACUGGGCAGAGCUCGACACAGCGUGGCAAAGUGGCUGUGGCUAGACUGCCUCUCUGGAUUCCUCGUCACUCAGCAGUGCGUCUCUGAGAGAAACGCC, the self-cleavage is reported as 0.45. For UACGUAGGUGGUUUUCCCCUGAUAGUGCUAAGGGGGCCUGGAAGUUUGGACUGGGCAGAGCUCGACACAGCGAGGCAAAGUGGCUGUGGCUAGACUGCCUCACUGGAUUCCUCGUCACUCAGCAGGGCAUCUCUGAGAGAAAUGCC, the self-cleavage was 0.22. In the case of UACGUAGGUGGUUUUCCCCUGAUAGUGCUAAGGGGGCCUGGAAGUUUGGACUGGGCAGAGCUCGACACAGCGCGGCAAAGUGGCUGUGGCUUGACUGCCUCUCUGGAUUCCUCGUCACUCAACAGGGCGUCUCUGAGAGAAAUGCC, the self-cleavage is reported as 0.31. For UACGUAGGUGGUUUUCCCCUGAUAGUGCUAAGGGGGCCUGGAAGUUUGGACUGGGCAGAGCUCGACACAGCGUGGCAAAGAGGCUGUGGCUAGACUGCUUCUCUGGAUUCCUCGUCACUCAGCAGGGCAUCUCUGAGAGAAAUGCC, the self-cleavage was 0.22. In the case of UACGUAGGUGGUUUUCCCCUGAUAGUGCUAAGGGGGCCUGGAAGUUUGGACUGGGCAGAGCUCGACACAGCGUGGCAAAGCGGCUGUGGCUAGACUGCCUCUCUGGACUCCUCGUCACUCAGCAGGGCAUCUCUGAGAGAAAUGCC, the self-cleavage is reported as 1.2. UACGUAGGUGGUUUUCCCCUGAUAGUGCUAAGGGGGCCUGGAAGUUUGGACUGGGCAGAGCUCGACACAGCGUGGCAAAGCGGCUGUGGCUAGACUGCCUCUCUGGAUUCCUCGUCACACAGCAGGGCAUCUCUGAGAGAAAUGCC showed a self-cleavage of 0.09. Variant UACGUAGGUGGUUUUCCCCUGAUAGUGCUAAGGGGGCCUGGAAGUUUGGACUGGGCAGAGCUCGACACAGCGUGGCAAAGCGGCUGUGGCUAGACUGCCUCUCUGGAUUCCUCGUCACUCAGCAGGGCAUCACUGAGAGAAAUGCC has a self-cleavage of 0.31. With UACGUAGGUGGUUUUCCCCUGAUAGUGCUAAGGGGGCCUGGAAGUUUGGACUGGGCAGAGCUCGACACAGCGUGGCAAAGUGGCAGUGGCUAGACUACCUCUCUGGAUUCCUCGUCACUCAGCAGGGCAUCUCUGAGAGAAAUGCC the self-cleavage was 0.05. For UACGUAGGUGGUUUUCCCCUGAUAGUGCUAAGGGGGCCUGGAAGUUUGGACUGGGCAGAGCUCGACACAGCGUGGCAAAGUGGCUGAGGCUAGACUGCCUCUCUGGAUUCCUCGUCACUCAGCAAGGCAUCUCUGAGAGAAAUGCC, the self-cleavage was 0.05. Variant UACGUAGGUGGUUUUCCCCUGAUAGUGCUAAGGGGGCCUGGAAGUUUGGACUGGGCAGAGCUCGACACAGCGUGGCAAAGUGGCUGAGGCUAGACUGCCUCUCCGGAUUCCUCGUCACUCAGCAGGGCAUCUCUGAGAGAAAUGCC has a self-cleavage of 0.13. Variant UACGUAGGUGGUUUUCCCCUGAUAGUGCUAAGGGGGCCUGGAAGUUUGGACUGGGCAGAGCUCGACACAGCGUGGCAAAGUGGCUGUGGCAAGACUGCCUCUCUGGAUUCCUCGUCACUCAGCAGGGCAUCUCUGAGAGGAAUGCC has a self-cleavage of 0.12.
